# Laboratory results published in PMC4336329 (PLoS ONE, 2015).
# The whole screen tested about 310,000 compounds, of which about 2,200 (0.71%) showed an effect of 50% or more. The effect is printed as a negative number. This is one part of the list.
# Biological target: human ether-à-go-go-related gene (hERG) potassium channel (human, UniProt Q12809)
# Test: primary screen, population patch clamp on CHO cells stably expressing hERG
# human ether-à-go-go-related gene (hERG) potassium channel, sequence (Q12809 whole entry, looked up): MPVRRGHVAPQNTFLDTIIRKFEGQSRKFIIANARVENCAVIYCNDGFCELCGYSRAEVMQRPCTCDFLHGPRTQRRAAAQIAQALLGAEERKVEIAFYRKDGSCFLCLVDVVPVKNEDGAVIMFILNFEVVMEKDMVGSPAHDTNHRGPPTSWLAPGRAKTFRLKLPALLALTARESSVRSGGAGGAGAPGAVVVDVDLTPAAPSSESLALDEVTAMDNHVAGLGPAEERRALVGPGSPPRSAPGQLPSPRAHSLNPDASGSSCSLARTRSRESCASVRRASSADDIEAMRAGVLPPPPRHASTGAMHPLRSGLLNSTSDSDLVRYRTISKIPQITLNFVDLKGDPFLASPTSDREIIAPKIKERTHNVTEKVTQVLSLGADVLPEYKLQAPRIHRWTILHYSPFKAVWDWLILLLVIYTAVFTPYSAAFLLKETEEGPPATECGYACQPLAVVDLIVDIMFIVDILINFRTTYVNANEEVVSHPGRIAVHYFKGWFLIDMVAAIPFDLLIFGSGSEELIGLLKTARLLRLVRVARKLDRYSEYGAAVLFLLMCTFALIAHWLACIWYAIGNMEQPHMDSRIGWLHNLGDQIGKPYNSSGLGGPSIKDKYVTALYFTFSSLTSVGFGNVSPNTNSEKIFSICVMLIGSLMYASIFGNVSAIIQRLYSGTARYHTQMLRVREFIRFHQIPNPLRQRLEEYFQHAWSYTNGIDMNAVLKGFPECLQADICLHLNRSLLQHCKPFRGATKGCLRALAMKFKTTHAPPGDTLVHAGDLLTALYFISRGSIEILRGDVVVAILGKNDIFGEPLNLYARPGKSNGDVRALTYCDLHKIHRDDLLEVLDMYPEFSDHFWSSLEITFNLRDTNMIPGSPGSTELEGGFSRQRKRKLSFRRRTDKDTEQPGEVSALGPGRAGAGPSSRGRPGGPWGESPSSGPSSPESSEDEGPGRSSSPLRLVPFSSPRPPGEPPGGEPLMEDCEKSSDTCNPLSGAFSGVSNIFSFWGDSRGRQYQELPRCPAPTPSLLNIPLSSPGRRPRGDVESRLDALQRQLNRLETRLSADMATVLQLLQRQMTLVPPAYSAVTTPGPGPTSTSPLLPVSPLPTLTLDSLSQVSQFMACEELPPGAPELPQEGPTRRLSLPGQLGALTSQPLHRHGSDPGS
row,Structure (SMILES),"hERG current change (%, negative = inhibition) at 1uM [%]"
1,CCOC(=O)C(NC(=O)N(C)C)(Nc1sc(C)c(CC)c1C#N)C(F)(F)F (stereo not drawn),0.692
2,CCCN(CCC)C(C)C(=O)NCC1(c2ccccc2)CCCC1.Cl (stereo not drawn),5.77
3,CCCCSc1oc(-c2ccco2)nc1S(=O)(=O)c1ccccc1,12.9
4,COC(=O)c1ccccc1NC(=O)Cn1c(=O)oc2ccc(Cl)cc21,10.2
5,Cc1cccc(C)c1OCC(=O)NCc1nnc(SCC(=O)NC2CCCCC2C)n1C (stereo not drawn),1.8
6,O=C(N1CCOCC1)N1CCC(n2nnc3cc(F)ccc32)CC1,0.687
7,C=C(c1ccccc1O)n1ccnc1,16
8,COc1ccccc1-n1c(C)nnc1SCC(=O)NCc1ccccc1,14
9,CCCCOc1ccccc1C(=O)N(Cc1ccco1)C1CCS(=O)(=O)C1 (stereo not drawn),6.83
10,CCn1c(=O)c2c(nc3n2CC(C)CN3CCc2ccccc2)n(C)c1=O (stereo not drawn),-31.2
11,Cc1ccc(CNC(=O)CS(=O)(=O)Cc2nc(-c3ccccc3F)oc2C)cc1,15.4
12,c1ccc(-c2nnc(-c3ccccc3)o2)cc1,6.76
13,COCCN(CCOC)Cc1c(C)[nH]c2c(C)c(C)ccc2c1=O,-3.72
14,Cc1ccc(O)c(C2=Nc3ccccc3C2(C)C)c1,0.614
15,CCCCNS(=O)(=O)C1CCS(=O)(=O)C1 (stereo not drawn),17.2
16,C(=N\n1cnnc1)/c1ccccn1,3.11
17,COc1c(Cl)cc(Cl)cc1/C=C/C(=O)c1ccc(NC(=O)c2cccs2)cc1,-0.352
18,COc1ccc(/C=C2\N=C(SC)N(C)C2=O)cc1,4.03
19,CC1N(C)c2cc(NC(=O)c3ccco3)ccc2C1(C)C (stereo not drawn),11.3
20,Cc1ccc(-n2cnc(N)c2C(=O)c2cccc([N+](=O)[O-])c2)cc1,5.84
21,CSCCC(NS(=O)(=O)c1ccccc1F)C(=O)NC(C)c1ccccc1 (stereo not drawn),7.64
22,Cc1cc(C)nc(N2CCCC(C(=O)NC3CCCC3)C2)n1 (stereo not drawn),2.21
23,CC(C)(C)c1ccc(Oc2ccc(NC(=O)c3cccs3)cn2)cc1,8.97

row,Structure (SMILES),"hERG current change (%, negative = inhibition) at 1uM [%]"
1,COc1cc(/C=N/NC(=S)NCCN2CCOCC2)ccc1O,11.5
2,COc1ccc(CNC(=O)CN2C(=O)COc3ccc(S(=O)(=O)N4CCOCC4)cc32)cc1,11.4
3,Cc1nc2ccc(S(=O)(=O)Nc3cccc(-c4nc5cccnc5s4)c3C)cc2s1,-0.685
4,O=C(NC1CCC(NC(=O)C(F)(F)C(F)F)CC1)C(F)(F)C(F)F (stereo not drawn),-6
5,CCc1onc(C)c1C(=O)O,12.1
6,CN(C)S(=O)(=O)c1cccc(-n2sc3ccccc3c2=O)c1,12.3
7,O=C(O)CSCc1cn2cc(Cl)ccc2n1,-1.92
8,O=C(COc1ccc(Cl)cc1Cl)Nc1cccnc1,3.3
9,Cc1ccccc1C(=O)N=c1ccn(-c2nc3ccccc3nc2NS(=O)(=O)c2ccccc2)cc1,18
10,Cc1ccc(/C(O)=C2/C(=O)C(=O)N(Cc3ccco3)C2c2cccs2)cc1 (stereo not drawn),-5.82
11,Cn1c(CC(=O)Nc2ccccc2)nnc1SCC(=O)NC1CCCC1,9.49
12,Cc1ccc(NC(=O)CSCC(=O)Nc2ccccc2N2CCCC2)cc1,12.6
13,C#CCOc1ccccc1/C=C1/C(=O)ON=C1C,11.9
14,Cc1onc(-c2ccccc2Cl)c1C(=O)O/N=C(\N)c1ccccc1,2.52
15,CN(c1ccccc1)S(=O)(=O)c1nnc(NC(=O)C2CCCCC2)s1,3.73
16,COc1ccc(S(=O)(=O)N2CCN(c3ccccn3)CC2)cc1OC,6.82
17,Cc1ccc(S(=O)(=O)N2CCN(CCO)CC2)cc1-c1nnc2c3ccccc3c(C)nn12,4.64
18,CCNC(=O)CCn1nc(-c2ccc(C)cc2)c2ccccc2c1=O,9.59
19,Cc1cc(C)cc(C(=O)NC2C(=O)N3C(C(=O)O)=C(CSc4nnc(C)s4)CSC23)c1 (stereo not drawn),24
20,CCOc1ccc(C(=O)N2CCC3(CC2)NCCc2[nH]cnc23)cc1OCC,19.8
21,Cc1nnc(-c2ccc(Oc3ccc(Cl)cc3)c([N+](=O)[O-])c2)o1,10.6
22,CCN(CC)S(=O)(=O)c1ccc(NC(=O)CN(c2ccc(OC)cc2OC)S(C)(=O)=O)cc1,10.9
23,COc1c(OC)c(O)c2c(=O)c(O)c(-c3ccccc3)oc2c1OC,10.1

row,Structure (SMILES),"hERG current change (%, negative = inhibition) at 1uM [%]"
1,Cc1cc(OCC(=O)Nc2ccc3oc(=O)ccc3c2)ccc1Cl,9.11
2,COc1ccc(CNC(=O)C2CCN(C(=O)c3ccc(F)cc3)CC2)cc1OC,7.1
3,COc1ccc(Cc2nnc(NC(=O)c3ccc(Cl)c([N+](=O)[O-])c3)s2)cc1,14.7
4,Cn1c(SCC(=O)N2CCCC2)nnc1-c1cccs1,15.2
5,CCOC(=O)N1CCN(C(=O)CNC(=O)c2nn(-c3ccc(OC)cc3OC)c(=O)c3ccccc23)CC1,9.05
6,O=C(Nc1scc(-c2ccccc2)c1C(=O)O)c1ccc(F)cc1,22.1
7,Cc1nc(CC(=O)NNS(=O)(=O)c2ccc(F)c(Cl)c2)cs1,15.9
8,COc1ccc(Oc2c(C)oc3c(CN(C)C)c(O)ccc3c2=O)cc1,3.37
9,CCN1CCN(CCNC(=O)CCCn2nc(C)c3c(C)n(-c4ccc(C)cc4)nc3c2=O)CC1,-0.261
10,O=C(CNC(=O)c1cc2c(s1)CCC2)Nc1ccccc1Br,13.2
11,COc1ccccc1NC(=O)N1CCc2c([nH]c3ccccc23)C1C(F)(F)F (stereo not drawn),12.7
12,CCc1nnc(NC(=O)CCC(=O)NC2CCCC2)s1,5.44
13,COc1ccccc1N1CCN(C(=S)Nc2ccc(S(=O)(=O)N3CCOCC3)cc2)CC1,12.3
14,O=C(NCc1ccc2c(c1)OCO2)C(=O)Nc1cc2c3c(c1)CC(=O)N3CCC2,6.08
15,Cc1cccc(C)c1NC(=S)NC(=O)c1ccc(Br)o1,3.51
16,CCOc1ccc(-c2nc(C#N)c(NCc3ccc4c(c3)OCO4)o2)cc1,11.6
17,O=C(NNC(=S)Nc1ccccc1Cl)C1CC1,17.2
18,O=C(NNc1ccc([N+](=O)[O-])cc1)C1CC1c1ccccc1 (stereo not drawn),5.8
19,C/C(=N\NC(=O)c1ccc(Cl)cc1)c1ccc(Br)s1,1.39
20,Cc1ccc(C2(C)NC(=O)N(Cc3c(C)noc3C)C2=O)cc1 (stereo not drawn),12
21,CCOc1ccc(NC(=O)CN2CCN(C3c4ccccc4-c4ccccc43)CC2)cc1,-25.5
22,Cn1c(-c2ccc(C=O)s2)nc2ccccc21,12.8
23,O=C(C1CCN(S(=O)(=O)c2cccc3nsnc23)CC1)N1CCCc2ccccc21,4.66

row,Structure (SMILES),"hERG current change (%, negative = inhibition) at 1uM [%]"
1,O=C(CCCOc1ccccc1)Nc1nccs1,-14.6
2,O=S1c2ccccc2Nc2ccccc21,9.01
3,CCOC(=O)C(CO)(NC(C)=O)C(=O)OCC,14.1
4,COc1ccc(OC)c(-n2c(-c3ccccc3)n[nH]c2=S)c1,13
5,CC(C)c1ccc(NC2CCCN(C(=O)c3ccco3)C2)cc1 (stereo not drawn),13.1
6,COc1cccc(CN2CCN(Cc3ccc(O)c(OC)c3)CC2CCO)c1 (stereo not drawn),6.53
7,O=C(Cn1cnc2cc([N+](=O)[O-])ccc2c1=O)Nc1cccc(S(=O)(=O)N2CCOCC2)c1,-0.94
8,CN1CCN(C(=O)C2CCN(c3ncc(C(F)(F)F)cc3Cl)CC2)CC1,3.35
9,O=[N+]([O-])c1ccc(Cl)c(S(=O)(=O)Nc2ccc(-c3ccc(N4CCCC4)nn3)cc2)c1,0.863
10,COC(=O)c1cn(CC(=O)NCc2cccs2)c2ccccc12,14.2
11,CSc1ccc(NC(=O)c2cccnc2)cc1C#N,14.8
12,O=C(Cc1ccccc1)NN1C(=O)C2C3C=CC(C3)C2C1=O (stereo not drawn),12.9
13,CC1CC(NS(=O)(=O)c2cc3c4c(c2)CCN4C(=O)CC3)CC(C)(C)C1 (stereo not drawn),-3.42
14,COc1ccc(CN(CC2CCCO2)S(=O)(=O)c2ccc(-n3cnnn3)c(OC)c2)cc1 (stereo not drawn),-3.64
15,CN(CCC1CCOCC1)C(=O)CC1C(=O)NCCN1CC1CCCCC1 (stereo not drawn),8.21
16,CCCC(C)C(=O)Nc1ccc(S(=O)(=O)N2CCCC2)cc1 (stereo not drawn),12.2
17,CCOC(=O)C1=C(c2ccccc2)NC(=O)NC1c1ccc(OC)cc1 (stereo not drawn),4.55
18,O=C(CSc1ccc(Cl)cc1)NC1=NN(c2ccccc2)C(=O)C1,16.2
19,CN(C)c1c(F)cc(-c2nn[nH]n2)cc1F,15.6
20,CCOc1ccc2nc(N3C(=O)C(O)=C(C(=O)c4ccco4)C3c3ccco3)sc2c1 (stereo not drawn),15.4
21,COc1ccc2nc(NC(=O)c3ccc4ncsc4c3)sc2c1,11.5
